# According to the supplement of paper PMC8728848:
# The other results are listed elsewhere or left out.
# B1: Epa10 (protein)
# chain: MNEKIFRYLTLLFLFELARSLPVEDKLNIKKVFEKRAVDFTPFAHYPRPEGCSSPPNSVSVGLHMNLYNYPYLYVKPSTKGMFTNDTNSDADGETDGDSAGGIEGRAGQCWNPEYQDPNFPRFGYKQYGEFGASDNVNGDISWDHNEFTEGCKPVLAALPPGYNYPDEITFSNFTMVLSGYFKPKTSGVYKFELKADDFILFNFGAKNAFECCNREESIDNFGPYVAYAMWPNQADQELEVYLFEDSYYPLRLFYNNRDYHSKFKIGFYPPGQTTITFDFDGYLFMLDDTGNECRDSIRYRTVCDDKVVDDTTYSTRYSTSMVPGGGSDVITIYYIRMKCEEEDCLGQWDPINNVCYSPDDCADDGGYWNGQMCDQSCKLEGGIVNPDTGDCDKSCIESGGFLDENGNCDTTCRDDGGMLVEGQCDYQCKEAGGILVGDHCDTTCVDSGGKLNEDGTCDHSCRDQGGQLDENGECDTSCKDSGGMLIEGECDTSCKDEGGQLDDNNECINHCKDQGGIIDENGNCDTSCKDSGGKLDESGACDTSCRDDGGIIDENGNCNTTCRDDGGIIVGDHCDTSCRDAGGILIEDHCDTTCRDSGGKLNEDGTCDHSCRDQGGQLDENGKCDYSCKNGGGKLDEDGNCDMSCKENGGKLDENGDCDLSCKEDGGKLDGNGDCDYSCKEEGGVIDESGNCNTTCKDSGGQIIDGECNYGCIEVGGVVIDGECDTSCIDSGGILDGDGNCDRSCIESGGVLEDGACNTTCRDSGGQLNVDGTCDTSCRDDGGMLVEGQCDYQCKEAGGILEDGECVFPPTSSSTSETSSTTDQSSLQSDDSSMESSSTPMDSSTIESSSSEIITSESESESVPIASSSSEVMTSESESESIPILTSSSEIPIASSSSEIPVASSSSEIIIPESESESVPVASSSSEIPIASSSSEIPVASSSSEIPVASSSSEIIIPESESESIPIESTSSEAVSSRSESDSSYPTPTPTTTTITTWPNPIQPTTSNSSPIVSSSTETPGIAESSSRISDLESSRRTSILGDDRTRTRTTITSTITEDGQIITITTTVTGFVPEPTGETEGNGSDDENPENPIENNTDENEFLDPEFTDDIPDDPAGPEDNGNGPVNPEQGNDNDPVNLEDSGNNGAVNPEQAPVNDEDNGGNDPVNPEQDNNNGPANPGQDSTNGSGNSDQIDNNPPTPEENAGDGNSNGNDPADPSRRTSILGDERTRASPGGTSQPTGANGNVNGNSPGANVNGGGTGNSNNNNNNNNNNNNGNAPNGGDGSNGDANQGPSRRTSLLGDERTRAGQAAPTGGSSPDNGIAGDTSNNGGAIVSQQVDDGGAGSPRRTSILGDVRSRTTLNGEVLNFEGSGVRRAVAGNLALPLMMVGLVFNL
# Assays:
# Test in all cases: glycan array binding signal (z-score within array); higher = stronger binding
# Conditions in all cases: glycan notation: IUPAC condensed, linker removed
# [1] = target: Gal(b1-4)GlcNAc(b1-3)Gal(b1-4)GlcNAc(b1-6)[Gal(b1-3)]GalNAc
# Method in brief: (§1)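 The Consortium for Functional Glycomics database supplied 3228 glycan arrays, of which those lacking an available protein sequence were dropped. The binding signal, a within-array Z-score, was averaged across arrays of the same protein sequence and across linkers. Negative scores can be read as non-binding.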
# [2] = target: Gal(b1-4)GlcNAc(b1-3)Gal(b1-4)[Fuc(a1-3)]GlcNAc(b1-3)Gal(b1-4)[Fuc(a1-3)]GlcNAc
# Method in brief: as §1
# [3] = target: Gal(b1-4)GlcNAc(b1-3)GalNAc
# Method in brief: as §1
# [4] = target: Gal(b1-4)GlcNAc(b1-3)[Fuc(a1-3)GlcNAc(b1-6)]Gal(b1-4)Glc
# Method in brief: as §1
# [5] = target: Gal(b1-4)GlcNAc(b1-3)[Gal(b1-4)GlcNAc(b1-6)]Gal(b1-4)GlcNAc
# Method in brief: as §1
# [6] = target: Gal(b1-4)GlcNAc(b1-3)[GlcNAc(b1-6)]Gal(b1-4)GlcNAc
# Method in brief: as §1
# [7] = target: Gal(b1-4)GlcNAc(b1-6)Gal(b1-4)GlcNAc
# Method in brief: as §1
# [8] = target: Gal(b1-4)GlcNAc(b1-6)GalNAc
# Method in brief: as §1
# [9] = target: Gal(b1-4)GlcNAc(b1-6)[Gal(b1-3)]GalNAc
# Method in brief: as §1
# [10] = target: Gal(b1-4)GlcNAc(b1-6)[Gal(b1-4)GlcNAc(b1-3)]GalNAc
# Method in brief: as §1
# Gal(b1-4)GlcNAc6P = target: Gal(b1-4)GlcNAc6P
# Method in brief: as §1
# Gal(b1-6)Gal = target: Gal(b1-6)Gal
# Method in brief: as §1
# Gal3S(b1-3)GalNAc = target: Gal3S(b1-3)GalNAc
# Method in brief: as §1
# Gal3S(b1-3)GlcNAc = target: Gal3S(b1-3)GlcNAc
# Method in brief: as §1
# [11] = target: Gal3S(b1-3)[Fuc(a1-4)]GlcNAc
# Method in brief: as §1
# Gal3S(b1-4)Glc = target: Gal3S(b1-4)Glc
# Method in brief: as §1
# Gal3S(b1-4)Glc6S = target: Gal3S(b1-4)Glc6S
# Method in brief: as §1
# Gal3S(b1-4)GlcNAc = target: Gal3S(b1-4)GlcNAc
# Method in brief: as §1
# [12] = target: Gal3S(b1-4)[Fuc(a1-3)]Glc6S
# Method in brief: as §1
# [13] = target: Gal3S(b1-4)[Fuc(a1-3)]GlcNAc
# Method in brief: as §1
# [14] = target: Gal3S(b1-4)[Fuc(a1-3)]GlcNAc6S
# Method in brief: as §1
# Gal3S4S(b1-4)GlcNAc = target: Gal3S4S(b1-4)GlcNAc
# Method in brief: as §1
# Gal3S6S(b1-4)GlcNAc = target: Gal3S6S(b1-4)GlcNAc
# Method in brief: as §1
# Gal3S6S(b1-4)GlcNAc6S = target: Gal3S6S(b1-4)GlcNAc6S
# Method in brief: as §1
# Gal4S(b1-4)GlcNAc = target: Gal4S(b1-4)GlcNAc
# Method in brief: as §1
# Gal4S6S(b1-4)GlcNAc = target: Gal4S6S(b1-4)GlcNAc
# Method in brief: as §1
# Gal6P(b1-4)GlcNAc = target: Gal6P(b1-4)GlcNAc
# Method in brief: as §1
# Gal6S(b1-3)GlcNAc = target: Gal6S(b1-3)GlcNAc
# Method in brief: as §1
# Gal6S(b1-3)GlcNAc6S = target: Gal6S(b1-3)GlcNAc6S
# Method in brief: as §1
# Gal6S(b1-4)Glc = target: Gal6S(b1-4)Glc
# Method in brief: as §1
# Gal6S(b1-4)Glc6S = target: Gal6S(b1-4)Glc6S
# Method in brief: as §1
# Gal6S(b1-4)GlcNAc = target: Gal6S(b1-4)GlcNAc
# Method in brief: as §1
# Gal6S(b1-4)GlcNAc6S = target: Gal6S(b1-4)GlcNAc6S
# Method in brief: as §1
# GalNAc(a1-3)Gal = target: GalNAc(a1-3)Gal
# Method in brief: as §1
# GalNAc(a1-3)GalNAc = target: GalNAc(a1-3)GalNAc
# Method in brief: as §1
# [15] = target: GalNAc(a1-3)GalNAc(b1-3)Gal(a1-4)Gal(b1-4)Glc
# Method in brief: as §1
# [16] = target: GalNAc(a1-3)GalNAc(b1-3)Gal(a1-4)Gal(b1-4)GlcNAc
# Method in brief: as §1
# GalNAc(b1-3)Gal = target: GalNAc(b1-3)Gal
# Method in brief: as §1
# [17] = target: GalNAc(b1-3)Gal(a1-4)Gal(b1-4)GlcNAc
# Method in brief: as §1
# [18] = target: GalNAc(b1-3)Gal(a1-4)Gal(b1-4)GlcNAc(b1-3)Gal(b1-4)Glc
# Method in brief: as §1
# [19] = target: GalNAc(b1-3)Gal(a1-6)Gal(b1-4)Glc
# Method in brief: as §1
# GalNAc(b1-3)GalNAc = target: GalNAc(b1-3)GalNAc
# Method in brief: as §1
# GalNAc(b1-3)GlcNAc = target: GalNAc(b1-3)GlcNAc
# Method in brief: as §1
# GalNAc(b1-4)Gal(b1-4)Glc = target: GalNAc(b1-4)Gal(b1-4)Glc
# Method in brief: as §1
# GalNAc(b1-4)GlcNAc = target: GalNAc(b1-4)GlcNAc
# Method in brief: as §1
binder,measurement,setting,value
B1,glycan array binding signal (z-score),[1],1.3
same,glycan array binding signal (z-score),[2],-0.153
same,glycan array binding signal (z-score),[3],-0.211
same,glycan array binding signal (z-score),[4],-0.239
same,glycan array binding signal (z-score),[5],0.167
same,glycan array binding signal (z-score),[6],-0.128
same,glycan array binding signal (z-score),[7],0.004
same,glycan array binding signal (z-score),[8],-0.127
same,glycan array binding signal (z-score),[9],2.59
same,glycan array binding signal (z-score),[10],0.208
same,glycan array binding signal (z-score),Gal(b1-4)GlcNAc6P,-0.29
same,glycan array binding signal (z-score),Gal(b1-6)Gal,-0.2
same,glycan array binding signal (z-score),Gal3S(b1-3)GalNAc,-0.245
same,glycan array binding signal (z-score),Gal3S(b1-3)GlcNAc,-0.228
same,glycan array binding signal (z-score),[11],-0.251
same,glycan array binding signal (z-score),Gal3S(b1-4)Glc,-0.218
same,glycan array binding signal (z-score),Gal3S(b1-4)Glc6S,-0.187
same,glycan array binding signal (z-score),Gal3S(b1-4)GlcNAc,-0.312
same,glycan array binding signal (z-score),[12],-0.1
same,glycan array binding signal (z-score),[13],-0.311
same,glycan array binding signal (z-score),[14],-0.35
same,glycan array binding signal (z-score),Gal3S4S(b1-4)GlcNAc,-0.252
same,glycan array binding signal (z-score),Gal3S6S(b1-4)GlcNAc,-0.277
same,glycan array binding signal (z-score),Gal3S6S(b1-4)GlcNAc6S,-0.239
same,glycan array binding signal (z-score),Gal4S(b1-4)GlcNAc,-0.247
same,glycan array binding signal (z-score),Gal4S6S(b1-4)GlcNAc,-0.306
same,glycan array binding signal (z-score),Gal6P(b1-4)GlcNAc,-0.183
same,glycan array binding signal (z-score),Gal6S(b1-3)GlcNAc,-0.171
same,glycan array binding signal (z-score),Gal6S(b1-3)GlcNAc6S,0.218
same,glycan array binding signal (z-score),Gal6S(b1-4)Glc,-0.365
same,glycan array binding signal (z-score),Gal6S(b1-4)Glc6S,0.033
same,glycan array binding signal (z-score),Gal6S(b1-4)GlcNAc,-0.285
same,glycan array binding signal (z-score),Gal6S(b1-4)GlcNAc6S,-0.119
same,glycan array binding signal (z-score),GalNAc(a1-3)Gal,-0.277
same,glycan array binding signal (z-score),GalNAc(a1-3)GalNAc,-0.207
same,glycan array binding signal (z-score),[15],-0.278
same,glycan array binding signal (z-score),[16],-0.142
same,glycan array binding signal (z-score),GalNAc(b1-3)Gal,-0.186
same,glycan array binding signal (z-score),[17],-0.153
same,glycan array binding signal (z-score),[18],-0.242
same,glycan array binding signal (z-score),[19],-0.227
same,glycan array binding signal (z-score),GalNAc(b1-3)GalNAc,-0.232
same,glycan array binding signal (z-score),GalNAc(b1-3)GlcNAc,-0.302
same,glycan array binding signal (z-score),GalNAc(b1-4)Gal(b1-4)Glc,-0.203
same,glycan array binding signal (z-score),GalNAc(b1-4)GlcNAc,-0.254
